# Screen size: about 310,000 compounds; about 14,000 (4.5%) showed an effect of 50% or more. The effect is printed as a negative number. The list shows a part of the results.
# Biological target: human ether-à-go-go-related gene (hERG) potassium channel (human, UniProt Q12809)
# Test: primary screen, population patch clamp on CHO cells stably expressing hERG
# 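Note: peak tail current of the secondary pulse compared with the same well before compound.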
# human ether-à-go-go-related gene (hERG) potassium channel, sequence (Q12809 whole entry, looked up): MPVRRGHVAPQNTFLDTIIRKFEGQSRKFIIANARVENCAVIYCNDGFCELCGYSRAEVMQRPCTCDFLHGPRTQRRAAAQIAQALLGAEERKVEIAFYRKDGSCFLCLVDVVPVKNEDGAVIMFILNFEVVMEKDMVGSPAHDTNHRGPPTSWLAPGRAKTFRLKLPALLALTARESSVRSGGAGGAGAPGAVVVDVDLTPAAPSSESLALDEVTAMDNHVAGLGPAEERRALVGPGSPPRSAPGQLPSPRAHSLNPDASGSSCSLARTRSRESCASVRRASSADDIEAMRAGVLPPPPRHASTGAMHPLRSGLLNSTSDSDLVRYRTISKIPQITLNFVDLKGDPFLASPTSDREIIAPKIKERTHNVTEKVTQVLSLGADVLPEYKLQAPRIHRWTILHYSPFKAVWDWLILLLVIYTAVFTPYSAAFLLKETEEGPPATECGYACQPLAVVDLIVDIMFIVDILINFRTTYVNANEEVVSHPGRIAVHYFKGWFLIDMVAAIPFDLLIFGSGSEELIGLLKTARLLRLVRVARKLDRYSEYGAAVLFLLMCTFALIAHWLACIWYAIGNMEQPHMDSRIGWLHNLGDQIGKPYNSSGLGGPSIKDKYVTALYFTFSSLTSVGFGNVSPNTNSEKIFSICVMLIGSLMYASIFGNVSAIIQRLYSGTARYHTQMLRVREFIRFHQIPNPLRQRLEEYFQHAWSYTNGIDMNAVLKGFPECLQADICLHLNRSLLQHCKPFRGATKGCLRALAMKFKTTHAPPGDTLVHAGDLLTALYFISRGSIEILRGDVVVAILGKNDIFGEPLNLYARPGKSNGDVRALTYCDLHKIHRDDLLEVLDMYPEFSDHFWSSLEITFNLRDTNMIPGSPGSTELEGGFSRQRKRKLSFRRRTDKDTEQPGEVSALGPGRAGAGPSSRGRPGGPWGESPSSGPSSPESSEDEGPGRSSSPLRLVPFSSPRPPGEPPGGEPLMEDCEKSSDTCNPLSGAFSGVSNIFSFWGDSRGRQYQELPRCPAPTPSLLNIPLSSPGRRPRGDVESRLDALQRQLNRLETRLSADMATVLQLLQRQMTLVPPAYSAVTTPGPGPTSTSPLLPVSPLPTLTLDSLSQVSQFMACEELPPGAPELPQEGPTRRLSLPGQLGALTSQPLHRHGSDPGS
row,SMILES,"hERG current change (%, negative = inhibition) at 10uM"
1,CCCc1cc(C(=O)Cc2ccc(C(=O)OCC)o2)c(O)cc1O,-0.564%
2,CCCn1nnnc1NC(=O)c1ccc2ccccc2c1,13.6%
3,COc1cccc(CN2CCN(C(=O)c3oc4c(F)cccc4c3C)CC2=O)c1,1%
4,O=C(CSc1ccc(Cl)cc1)NCC1CCCO1 (centres unmarked),-0.18%
5,CSCC[C@@H](CO)NC(=O)c1ccc2nc(C3CCCCC3)oc2c1,4.75%
6,CSc1nc(NC(C)=O)nc(C)c1Br,-0.891%
7,O=C(Nc1cc(C(F)(F)F)ccc1Cl)c1cccc(N2C(=O)CCC2=O)c1,10.7%
8,COc1ccc(NC(=O)CC(CC(=O)O)c2cc(OC)c(OC)c(OC)c2)cc1 (centres unmarked),7.3%
9,CC(C)Sc1ncnc2c1oc1ccccc12,-2.07%
10,O=C(Nc1ccccc1)Nc1ccccc1Br,6.94%
11,Cc1ccc(CNC(=O)C2=CCN(S(=O)(=O)c3ccc(C)cc3)CC2)cc1,-22.1%
12,COc1ccccc1C(=O)NCCC(=O)N(C)Cc1cccs1,-2.13%
13,O=[N+]([O-])c1cccc(CN2CCCCCC2)c1,5.75%
14,N#C/C(=C/c1ccc(-c2ccccc2)o1)c1nc(-c2cccs2)cs1,9.15%
15,Nc1c(S(=O)(=O)c2cccs2)c2nc3ccccc3nc2n1CC1CCCO1 (centres unmarked),0.762%
16,COc1cccc2sc(NN)nc12,19.1%
17,NC(=O)CC(NC(=O)Cc1ccc(Br)cc1)c1ccc(NCCOc2ccccc2)c([N+](=O)[O-])c1 (centres unmarked),-2.98%
18,COC(=O)C1=C(C)N(Cc2cccnc2)C(=O)C1,-0.706%
19,c1ccc(Nc2nnc(-c3cccnc3)s2)cc1,27%
20,COCCCNC(=S)N1CCN(Cc2ccc3c(c2)OCO3)CC1,13%
21,COc1ccc(N2CCN(C(=O)COc3ccc(S(=O)(=O)N4CCOCC4)cc3C)CC2)cc1,-20.3%
22,O=C(Cc1ccccc1)Nc1nnc(-c2cccs2)s1,-1.98%
23,Clc1ccccc1Cc1noc(CN2CCSCC2)n1,9.32%

row,SMILES,"hERG current change (%, negative = inhibition) at 10uM"
1,Cc1cc(=O)oc(C)c1C(=O)NCCC(C)C,-15.3%
2,Cc1ccc(CCNC(=O)CCCn2nc(C)c3c(C)n(-c4ccc(C)cc4)nc3c2=O)cc1,-28.5%
3,Cc1ccc(C(=O)Cn2c(C)cc(C)c(C#N)c2=O)cc1,9.35%
4,Cc1ccc(CSC2=NCCN2S(=O)(=O)c2ccccc2)cc1,1.47%
5,O=C(Cn1cnc2c(cnn2-c2ccccc2)c1=O)N1CCN(c2ccc(F)cc2)CC1,-8.46%
6,NNc1nc2ccc(F)cc2s1,-15.7%
7,O=C(Nc1nc(=O)[nH]s1)c1ccccc1,26.9%
8,Cc1nn(-c2nc3ccccc3s2)c(N)c1-c1ccccc1,-2.54%
9,Cn1c(=O)c2c(n(Cc3ccccc3)c1=O)NC(=O)C2CC(=O)O (centres unmarked),12.6%
10,CC(C)Nc1nnc(SCC(=O)Nc2ccc3c(c2)C(=O)c2ccccc2C3=O)s1,-2.55%
11,CC(C)CNC(=S)NNC(=O)CC(C)O (centres unmarked),-7.34%
12,CCc1nnc(NC(=O)c2ccc(S(=O)(=O)N3CCCc4ccccc43)cc2)o1,15.6%
13,COc1ccc(Br)cc1S(=O)(=O)NCCCN1CCOCC1,25.1%
14,CCCCSc1nnc(-c2ccccc2NC(C)=O)c(=O)[nH]1,17%
15,CCc1ccc(-c2cc(C(=O)Nc3c(C)n(C)n(-c4ccccc4)c3=O)c3ccccc3n2)s1,-9.07%
16,COc1ccc(-n2cc(-c3ccccc3)c3c(NCCOCCO)ncnc32)cc1,-42.9%
17,N#Cc1c(-c2cccc(Br)c2)cc(-c2cccnc2)nc1N,5.45%
18,Cc1cc(C)nc(NC(=O)c2ccc(C)c(C)c2)n1,18%
19,COc1ccccc1NC(=S)N/N=C1\CC(C)(C)Oc2ccc(O)cc21,0.968%
20,Cc1cc(C)cc(N(C(=O)c2sc(C)nc2C)C(C(=O)NC(C)(C)C)c2ccncc2)c1 (centres unmarked),55.2%
21,Cc1nn(-c2cccc(C(F)(F)F)c2)c(=O)c2ccccc12,-17%
22,COc1ccccc1Oc1c(C)oc2cc(OC(=O)N(C)C)ccc2c1=O,-6.85%
23,O=C(CNC(=O)N1CC(=O)Nc2ccccc21)NCc1ccccc1Cl,23.9%

row,SMILES,"hERG current change (%, negative = inhibition) at 10uM"
1,Cl.O=C(CN1CCCC1)N1c2ccccc2Sc2ccc(Cl)cc21,0.273%
2,Cc1ccc(CNC(=O)/C=C/c2c(Cl)cccc2Cl)cc1,1.22%
3,CC(C)N1C(=O)CCC1C(=O)NCc1cccs1 (centres unmarked),8.77%
4,Cc1cccc(C2=NCC(=O)N(CC(=O)NCc3ccco3)c3sc4c(c32)CCCC4)c1,-25.3%
5,O=C(NCc1cccc(F)c1)C1CCC(=O)N(C2CCCC2)C1 (centres unmarked),-5%
6,O=Cc1cc([N+](=O)[O-])ccc1N1CCN(Cc2ccc3c(c2)OCO3)CC1,-67.5%
7,O=c1[nH]c(SCc2cccc([N+](=O)[O-])c2)nc2[nH]ncc12,-10.6%
8,COc1cc(C2C(C#N)=C(N)N(c3ccc(F)cc3)C3=C2S(=O)(=O)CC3)ccc1O (centres unmarked),16.4%
9,Cc1ccc(C)c(N2CCN(C(=O)c3ccc(CSc4nc5ccncc5[nH]4)cc3)CC2)c1,-11.4%
10,CCCCn1ccnc1C(=O)c1cccc(S(=O)(=O)N2CC(C)CC(C)C2)c1 (centres unmarked),-14.4%
11,O=C(CSc1ccsc1[N+](=O)[O-])NCc1ccccc1,-2.29%
12,CCCOc1ccccc1C1NC(=O)NC(C)=C1C(=O)OCCOC(C)C (centres unmarked),-6.75%
13,Nc1nc(CSCCO)nc(Nc2ccccc2)n1,9.39%
14,CC(C)(C)NC(=S)N/N=C/c1cccnc1,-25.2%
15,Cn1c(=O)c2c(nc(NCC(O)CO)n2CCc2ccccc2)n(C)c1=O (centres unmarked),-5.52%
16,O=C(N/N=C/c1cccc(Oc2ccccc2)c1)c1cccc(O)c1,-6.66%
17,Cc1cc(Cl)c(S(=O)(=O)N(C)C)cc1OCC(N)=O,10.5%
18,O=C(Nc1ccc(C(=O)O)cc1)/C(=C\c1ccco1)NC(=O)c1ccc(Br)o1,2.41%
19,O=C(N=C1SC2CS(=O)(=O)CC2N1c1ccccc1F)C1CCCCC1 (centres unmarked),8%
20,Cc1oc(S(=O)(=O)N(C)C)cc1C(=O)Nc1ccc(Cl)cc1,8.63%
21,COc1ccc(F)cc1S(=O)(=O)N1CCCN(S(=O)(=O)c2cc(F)ccc2OC)CC1,-13.4%
22,CCOc1cc(C(=O)Nc2c3c(nn2C(C)(C)C)CS(=O)C3)cc(OCC)c1OCC (centres unmarked),-2.15%
23,O=c1[nH]c(=O)n(Cc2ccc(F)cc2)c(O)c1C=Nc1ccc(Cl)cc1,5.04%

row,SMILES,"hERG current change (%, negative = inhibition) at 10uM"
1,CC(c1ccccc1)N1CC(C(=O)Nc2ccc(F)cc2)CC1=O (centres unmarked),4.93%
2,CCN1C(=O)/C(=C2/C=Cc3ccccc3N2CC)SC1=S,11%
3,CC(C)CC(c1nnnn1C1CCCCC1)N1CCN(C(=O)c2ccco2)CC1.Cl (centres unmarked),-44.1%
4,COC(=O)CCS(=O)(=O)c1ccc(Cl)cc1,8.83%
5,CSc1nc(-c2ccccc2)[nH]c(=S)c1C(C)=O,8.59%
6,COc1ccc(/C(C)=N\NC(=O)CNC(=O)C(c2ccccc2)c2ccccc2)cc1OC,19%
7,COc1cccc(CNC(=O)CCS(=O)(=O)c2ccc3c(c2)NC(=O)CO3)c1,-1.62%
8,Cc1nonc1NC(=O)CSc1nnc(N)s1,-4.13%
9,CCOC(=O)C1CCN(C(=O)COc2ccc(S(=O)(=O)NC(C)(C)C)cc2)CC1,2.22%
10,CCc1ccc(/C=N/NC(=S)NCCc2ccccc2)cc1,-24.1%
11,Cc1ccc(C)c(NC(=O)CCN2CCC(C)CC2)c1,-9.25%
12,CC1CN=C(NCc2ccccc2)S1 (centres unmarked),11%
13,O=C(CN1CCCCC1)NN(Cc1ccccc1)c1ccccc1.O=C(O)C(=O)O,-73.3%
14,CC1CCCC(NC(=O)CN(C)CC(=O)Nc2ccc(F)cc2)C1C (centres unmarked),-12.8%
15,Cc1nc2nc[nH]n2c(=O)c1NC(=O)CC12CC3CC(CC(C3)C1)C2,7.21%
16,Cc1cccn2c(=O)c(C=O)c(NCc3ccccc3)nc12,6.99%
17,O=C(NCC(F)(F)F)N1CCOCC1,9.6%
18,Cc1nc2sc(C(c3ccco3)N3CCN(c4ccc(F)cc4)CC3)c(O)n2n1 (centres unmarked),-40.8%
19,Br.Cc1ccc(C(=O)Cn2c(=N)n(N)c3ccccc32)cc1,-14.7%
20,CCCCNc1nc(N(C)c2ccccc2)nc(-n2ccnc2)n1,0.357%
21,COc1ccc(C(=O)COC(=O)C(CCSC)NS(=O)(=O)c2ccc(Cl)cc2)cc1 (centres unmarked),-2.17%
22,O=C(NCC1COc2ccccc2O1)C1C2C=CC3(CN(Cc4ccccc4Cl)C(=O)C13)O2 (centres unmarked),-20.4%
23,COC(=O)C1=C(CS(=O)(=O)c2ccc(Cl)cc2)NC(=O)NC1c1ccc(O)c(OC)c1 (centres unmarked),-4.22%

# Source: article PMC4336329 (PLoS ONE, 2015)
